Results as given in PubChem BioAssay (NCI).
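Tested at 5 concentrations; 48 h exposure; 96-well plates; endpoints linearly interpolated, else capped at highest concentration. GI50 marks 50% less growth. At the TGI there is no net growth.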

The compounds below were run on NCI-H322M lung (assay: DTP human tumour cell line panel, 48 h).

Row | Compound | TGI [µM] | GI50 [µM]
1 | Cc1c2c(ccc3ccccc32)c[n+]2ccccc12 | 38.8 | 
2 | Oc1cc(CN2COc3ccccc32)c(O)cc1CNC1CCCCC1 | > 100 | 
3 | CC(C)CN(CC#N)CC(C)C | > 100 | 
4 | Cc1cc(NNC(=O)c2ccccc2O)nc(Nc2nc3ccccc3o2)n1 | 15.9 | 0.849
5 | COc1ccc(/C=C2\CC(C)CC3C2=NN(c2ccccc2)C3c2ccc(OC)c(OC)c2)cc1OC (stereo not given) | > 100 | 4.48
6 | COC(=O)C1=C(C(=O)OC)C2OC1c1cc3ccccc3cc12 | 37.3 | 
7 | CC(C)(C)NC(=O)C12C3C4C1C1C2C3C41C(=O)NC(C)(C)C (stereo not given) | > 100 | 
8 | COc1ccc2c(c1)C(=O)c1c-2n(CCCN)c(=O)c2cc(OC)c(OC)cc12 | 1.79 | 0.476
9 | C=C1CCC2C3(C)COC(c4ccc(Cl)cc4)OC3CCC2(C)C1/C=C/C1=CCOC1=O (stereo not given) | > 100 | 28.7
10 | CO[C@@H]1[C@H]2[C@@H](C)c3ccoc3C[C@@H]2[C@@]2(C)CC[C@H](OC(=O)c3ccccc3)[C@](C)(C(=O)O)[C@]2(O)[C@@H]1OC(=O)c1ccccc1 | > 50 | 11.3
11 | CCOC(=O)c1csc(NC(=O)COc2cccc(/C=C3\CSc4ccccc4C3=O)c2)n1 | 26.8 | 13.7
12 | COC(=O)[C@@H]1Cc2cc(O)c(O)cc2C2(CCN(C)CC2)O1 | > 10 | 
13 | Cc1ccc(NC(=O)CC/C(CC(=O)C(C)(C)C)=N\Nc2ccc([N+](=O)[O-])cc2[N+](=O)[O-])cc1C | > 100 | 
14 | CC[C@@H](C)Nc1cc(C(=O)NC2CC3CCC(C2)N3c2ccc(C(=O)C3CC3)cn2)c(C)cc1C(N)=O (stereo not given in full) | > 100 | 15.4
15 | COc1ccc(/C=C2/CCS(=O)(=O)c3ccc(C)cc3C2=O)cc1OC | 27.8 | 
16 | CCCCCCCCCc1c(O)c(O)c(CCCCCCCCC)c(CCCCCCCCC)c1CCCCCCCCC | > 100 | 
17 | CSc1ccc(C2=NN(C(C)=O)C(c3ccc(F)cc3)C2)cc1 (stereo not given) | 36 | 15.9
18 | N#CCCN(CCC#N)c1ccc(C(N=Nc2ccc(Cl)cc2)=Nc2ccc(F)cc2)cc1 | > 100 | 
19 | Cc1ccc(C2CC(c3cccc(Nc4ccncc4)c3)=NN2c2ccccc2)cc1 (stereo not given) | 3.05 | 1.67
20 | Cc1cc(C)nc(NS(=O)(=O)c2ccc(NC(=O)c3ccc(Cl)c4c(Nc5ccc(S(=O)(=O)N=C(N)N)cc5)c5ccccc5nc34)cc2)n1 | 73.8 | 
21 | C#CCN(N=O)C(=O)NCCCC(NC(C)=O)C(=O)NCc1ccccc1 (stereo not given) | > 100 | 
22 | CC(=O)N=C1N(/C=C2\C(=O)Oc3ccccc3C2=O)C(=O)/C(=C/c2ccccc2Cl)N1C | > 100 | 
23 | CC(=O)O/N=C(Cl)/C(Cl)=N/OC(C)=O | > 100 | 
24 | O=[N+]([O-])c1nccn1CCCNCCCn1ccnc1[N+](=O)[O-] | > 100 | 

Row | Compound | TGI [µM] | GI50 [µM]
25 | O=C(NNC(=S)Nc1ccccc1)c1ccccn1 | > 100 | 2.02
26 | COC1(CC[C@H](C)COC2OC(CO)C(O)C(O)C2O)O[C@H]2C[C@H]3[C@@H]4CC=C5C[C@@H](OC6OC(CO)C(O)C(OC7OC(CO)C(O)C(O)C7O)C6OC6OC(C)C(O)C(O)C6O)CC[C@]5(C)[C@H]4CC[C@]3(C)[C@H]2[C@@H]1C (stereo not given in full) | 9.95 | 
27 | O=C(O)c1nccnc1C(=O)O | > 100 | 
28 | C=CCn1cnc2c(=O)[nH]c(Nc3ccccc3)nc21 | > 100 | 
29 | NNC(=S)Nc1cccc(Cl)c1 | > 100 | 
30 | CC(=O)NC(CCCCN(Cc1ccccc1)C(=O)N(CCCl)N=O)C(=O)NCc1ccccc1 (stereo not given) | 98.3 | 
31 | CCOC(=O)NC(=O)c1cn(CCN2CCNCC2)c(=O)[nH]c1=O | > 100 | 
32 | O=C(Nc1nc(-c2ccc(Cl)cc2)nc2c1sc(=S)n2-c1ccccc1)C(F)(F)F | 43.1 | 6.95
33 | O=C(c1ccccc1)c1c(CC(O)c2ccccc2)n(C(=O)c2ccccc2)c2ccccc12 (stereo not given) | > 100 | 
34 | Cc1nnc(-c2ccc(C)c(-c3ccc(C(=O)NCc4ccc(Cl)cc4)cc3)c2)o1 | > 25 | > 25
35 | Cc1cc(C)n(C(=O)CSc2nnc(SCC(=O)n3nc(C)cc3C)s2)n1 | > 100 | 
36 | CC(=N)N(C)O | > 100 | 
37 | BrCC(Br)(c1ccccc1)c1ccccc1-c1cc(-c2ccccc2)cc(-c2ccccc2)n1 (stereo not given) | > 58.3 | 
38 | Nc1ccc2c(c1)Oc1c(F)c(F)cc3c(=O)c(C(=O)O)cn-2c13 | > 100 | 
39 | Cc1cc(C)n(CN(Cn2nc(C)cc2C)c2ccccc2)n1 | > 100 | 
40 | c1ccc(C2=Nc3cccc4cccc(c34)N2)cc1 | > 100 | 
41 | O=C1C(Cl)C(c2cc3cc(Br)ccc3nc2Cl)N1c1c(Cl)cccc1Cl (stereo not given) | > 25 | 
42 | Cn1c(-c2ccc(N=NNc3ccc(-c4n[nH]c(=S)n4C)cc3)cc2)n[nH]c1=S | > 100 | 
43 | N#Cc1c(N)c(C#N)c2c(c1-c1ccc(Cl)cc1)COc1ccccc1-2 | 21.3 | 
44 | CN(C)C(=O)C1CCN(Cc2c[nH]c3ccccc23)CC1 | > 100 | 
45 | CCOC(=O)NC(=S)c1ccc(O)c2ccccc12 | > 100 | 
46 | COc1ccc(N2C(=O)/C(=C\c3cccc(Oc4ccccc4)c3)SC2c2ccccc2)cc1 (stereo not given) | > 100 | 
47 | CCN(CC)CCNc1ccc2nnn3c4ccccc4c(=O)c1c23 | 9.09 | 
48 | CCOC(=O)c1[nH]c2nc(SC)nc(Nc3ccccc3Cl)c2c1N | 76.5 | 
